Broadly, the IC50 is the concentration at which inhibition is half-maximal. Read a low IC50 as greater potency.

These results are taken from patent US8633212B2, “Inhibitors of beta-secretase” (Vitae Pharmaceuticals, Inc., priority 2009, dated 2014).

This assay addresses ectodomain of BACE (aa 1-454) fused to a myc-his tag, secreted from HEK293/BACEect. cells (Homo sapiens (Human), UniProt P56817). Briefly: biochemical.
Regarding `COC1CCC2(CC1)Cc1ccc(OCC3CC3)cc1C21N=C(N)N(C(C)C)C1=O` (stereo not shown) [Compound 173], the IC50 was 16.7 nM. `COC1CCC2(CC1)Cc1ccc(-c3cncc(F)c3)cc1C21N=C(N)N(CC2CCO2)C1=O` (stereo not shown) [Compound 319] returned an IC50 of 13.7 nM. In the case of `CO[C@H]1CC[C@]2(CC1)Cc1ccc(-c3cnc(C)nc3)cc1C21C=C(N)N(C(C)C)C1=O` (stereo partly shown) [Compound 548] it was 23 nM; in that of `COCCCN1C(=O)C2(N=C1N)c1cc(CCC3CC3)ccc1CC21CCC(OC)CC1` (stereo not shown) [Compound 329], 7.4 nM. For `COCCOc1ccc2c(c1)C1(N=C(N)N(C)C1=O)C1(CCc3ccccc3CC1)C2` (stereo not shown) [Compound 405], it took 11.4 nM to reach half-maximal inhibition (IC50). Turning to `COC1CCC2(CC1)Cc1ccc(-c3cc(F)cc(Cl)c3)cc1C21CN(CC(F)(F)F)C(N)=N1` (stereo not shown) [Compound 445], the IC50 turned out to be 340 nM. In the case of `CC(C)N1C(=O)C2(N=C1N)c1cc(Br)ccc1OC21CCc2ccccc2CC1` (stereo not shown) [Compound 427], the IC50 stood at 182 nM.

Regarding `COC1CCC2(CC1)Cc1ccc(-c3cnn(C)c(=O)c3)cc1C21N=C(N)N(C)C1=O` (stereo not shown) [Compound 202], the IC50 amounted to 32.3 nM. The compound `COC1CCC2(CC1)Cc1ccc(Br)cc1C21N=C(N)N(C2COC2)C1=O` (stereo not shown) [Compound 431] had an IC50 of 55.8 nM. Compound `CCC(C)N1C(=O)C2(N=C1N)c1cc(OCC3CC3)ccc1CC21CCC(OC)CC1` (stereo not shown) [Compound 382] had an IC50 of 29.2 nM. `CCN1C(=O)C2(N=C1N)c1cc(OCC3CC3)ccc1CC21CCC(OC)CC1` (stereo not shown) [Compound 137] showed an IC50 of 7.8 nM. In the case of `CN1C(=O)C2(N=C1N)c1cc(OCC(F)(F)F)ccc1OC21CCc2ccccc2CC1` (stereo not shown) [Compound 426] it was 7 nM; in that of `COC1CCC2(CC1)Cc1ccc(C#CC3CC3)cc1C21N=C(N)N(Cc2cccc(-c3nccs3)c2)C1=O` (stereo not shown) [Compound 324], 10.3 nM. `COC1CCC2(CC1)Cc1ccc(CCC3CC3)cc1C21N=C(N)N(Cc2ccccn2)C1=O` (stereo not shown) [Compound 367] yielded an IC50 of 15.8 nM. In turn, `COC1CCC2(CC1)Cc1ccc(CCC3CC3)cc1C21N=C(N)N(C)C1=O` (stereo not shown) [Compound 148] yielded a 50% inhibitory concentration (IC50) of 5.4 nM. As to `COC1CCC2(CC1)Cc1ccc(Br)cc1C21N=C(N)N(C(C)(C)C)C1=O` (stereo not shown) [Compound 429], half-maximal inhibition (IC50) was put at 1670 nM. `COC1CCC2(CC1)Cc1ccc(Br)cc1C21CN(CC(F)(F)F)C(N)=N1` (stereo not shown) [Compound 446] showed an IC50 of 4330 nM. In the case of `CCC(CC)CN1C(=O)C2(N=C1N)c1cc(CCC3CC3)ccc1CC21CCC(OC)CC1` (stereo not shown) [Compound 349] it was 16.3 nM. As for `CO[C@H]1CC[C@]2(CC1)Cc1ccc(Br)cc1C21N=C(N)N(Cc2ccccc2)C1=O` (stereo partly shown) [Compound 389], inhibition was half-maximal at 17.2 nM (IC50). In the case of `COC1CCC2(CC1)Cc1ccc(CCC3CC3)cc1C21N=C(N)N(Cc2cccc(F)c2)C1=O` (stereo not shown) [Compound 353] it was 15.8 nM; in that of `COC1CCC2(CC1)Cc1ccc(C#CC3CC3)cc1C21N=C(N)N(CCCN(C)C)C1=O` (stereo not shown) [Compound 343], 22000 nM. Turning to `CCCc1cncc(-c2ccc3c(c2)C2(N=C(N)N(C(C)C)C2=O)C2(CCC(OC)CC2)C3)c1` (stereo not shown) [Compound 167], the IC50 came to 42.5 nM.

Regarding `COC1CCC2(CC1)Cc1ccc(CCC3CC3)cc1C21N=C(N)N(CC2CCOCC2)C1=O` (stereo not shown) [Compound 376], the midpoint of inhibition, the IC50, lay at 11.3 nM. Regarding `COC1CCC2(CC1)Cc1ccc(CCC3CC3)cc1C21N=C(N)N(Cc2ccccc2F)C1=O` (stereo not shown) [Compound 354], the IC50 worked out at 47.7 nM. With `COC1CCC2(CC1)Cc1ccc(C#CC3CC3)cc1C21N=C(N)N([C@H](C)c2ccccc2)C1=O` (stereo partly shown) [Compound 342], half-maximal inhibition (IC50) required 37.5 nM.

`COC1CCC2(CC1)Cc1ccc(-c3cncc(C#N)c3)cc1C21N=C(N)N(CC(F)(F)F)C1=O` (stereo not shown) [Compound 339]: the IC50 worked out at 22.5 nM. Next, `CN1C(=O)C2(N=C1N)c1cc(-c3ccccc3)ccc1OC21CCc2ccccc2CC1` (stereo not shown) [Compound 420]: 23.1 nM; `NC1=NC2(CCS1)c1cc(Br)ccc1CC21CCc2ccccc2CC1` (stereo not shown) [Compound 441]: 19500 nM; `COC1CCC2(CC1)Cc1ccc(-c3cnc(C4CC4)s3)cc1C21N=C(N)N(C)C1=O` (stereo not shown) [Compound 208]: 39.9 nM. In turn, `COC1CCC2(CC1)Cc1ccc(OCC3CC3)cc1C21N=C(N)N(CC(F)(F)F)C1=O` (stereo not shown) [Compound 341] displayed an IC50 of 13.5 nM. For `COC1CCC2(CC1)Cc1ccc(CCCC(C)C)cc1C21N=C(N)N(C)C1=O` (stereo not shown) [Compound 222], the IC50 came out at 16 nM.

Turning to `COC1CCC2(CC1)Cc1ccc(CCC3CC3)cc1C21N=C(N)N(CC2CCC2)C1=O` (stereo not shown) [Compound 347], the IC50 came out at 20.4 nM. `COC1CCC2(CC1)Cc1ccc(CCC3CC3)cc1C21N=C(N)N(Cc2ccccc2Cl)C1=O` (stereo not shown) [Compound 364] yielded an IC50 of 24.1 nM. On to `CN1C(=O)C2(N=C1N)c1ccccc1OC21CCc2ccccc2CC1` (stereo not shown) [Compound 423], for which the midpoint of inhibition, the IC50, lay at 186 nM.

Regarding `COC1CCC2(CC1)Cc1ccc(CCC3CC3)cc1C21N=C(N)N(CC(F)F)C1=O` (stereo not shown) [Compound 374], inhibition was half-maximal at 28.9 nM (IC50).

The compound `CN1C(=O)C2(N=C1N)c1cc(Cl)ccc1CC21CCc2ccccc2CC1` (stereo not shown) [Compound 398] showed an IC50 of 33.8 nM. Compound `COCCN1C(=O)C2(N=C1N)c1cc(C#N)ccc1CC21CCc2ccccc2CC1` (stereo not shown) [Compound 416] registered a half-maximal inhibitory concentration (IC50) of 16.1 nM.

On to `COC1CCC2(CC1)Cc1ccc(CCC3CC3)cc1C21N=C(N)N(Cc2ccc(F)cn2)C1=O` (stereo not shown) [Compound 357], for which the IC50 turned out to be 12.5 nM. With `COC1CCC2(CC1)Cc1ccc(C#CC3CC3)cc1C21N=C(N)N(CCN(C)C)C1=O` (stereo not shown) [Compound 325], the half-inhibitory concentration (IC50) worked out at 14 nM. For the compound `COC1CCC2(CC1)Oc1ccc(OCC3CC3)cc1C21N=C(N)N(C)C1=O` (stereo not shown) [Compound 132], the IC50 worked out at 24.9 nM.

Compound `CCC(C)N1C(=O)C2(N=C1N)c1cc(C#CC3CC3)ccc1CC21CCC(OC)CC1` (stereo not shown) [Compound 321] displayed an IC50 of 22.2 nM. Next, `CC#Cc1csc(-c2ccc3c(c2)C2(N=C(N)N(C(C)C)C2=O)C2(CCC(OC)CC2)C3)n1` (stereo not shown) [Compound 171]: 55.8 nM. With `COC1CCC2(CC1)Oc1ccc(CCC3CC3)cc1C21N=C(N)N(C)C1=O` (stereo not shown) [Compound 124], 21.5 nM corresponded to half-maximal inhibition (IC50). As for `CN1C(=O)C2(N=C1N)c1cc(CCC3CC3)ccc1OC21CCc2ccccc2CC1` (stereo not shown) [Compound 422], inhibition was half-maximal at 6.8 nM (IC50). In the case of `COC1CCC2(CC1)Cc1ccc(C(=O)N3CCCC3)cc1C21N=C(N)N(C)C1=O` (stereo not shown) [Compound 209] it was 814 nM. As to `COC1CCC2(CC1)Cc1ccc(Br)cc1C21N=C(N)N(CC2CCCO2)C1=O` (stereo not shown) [Compound 331], the half-inhibitory concentration (IC50) is 30.9 nM. Compound `COc1ccc2c(c1)C1(N=C(N)N(C)C1=O)C1(CCc3ccccc3CC1)C2` (stereo not shown) [Compound 404] returned an IC50 of 46.8 nM. Compound `COCCCc1ccc2c(c1)C1(N=C(N)N(C)C1=O)C1(CCC(OC)CC1)C2` (stereo not shown) [Compound 220] yielded an IC50 of 23.2 nM. Next, `COC1CCC2(CC1)Cc1ccc(C(F)(F)F)cc1C21N=C(N)N(C)C1=O` (stereo not shown) [Compound 230]: 321 nM; `COC1CCC2(CC1)Cc1ccc(C#N)cc1C21N=C(N)N(C(C)C)C1=O` (stereo not shown) [Compound 158]: 49.3 nM; `COC1CCC2(CC1)Cc1ccc(CCC3CC3)cc1C21N=C(N)N(CC(F)(F)F)C1=O` (stereo not shown) [Compound 345]: 61.5 nM. In the case of `COC1CCC2(CC1)Oc1ccc(Br)cc1C21CCSC(N)=N1` (stereo not shown) [Compound 439] it was 30000 nM.
